# From publication PMC5892938
# This is one part of the list. At the low end of the ranking, values are background and their order means little.
# Molecular target: GST-SBP-SLBP (stem-loop binding protein) (UniProt Q14493)
# Experiment: targeted RNA Bind-n-Seq;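 note: DESeq read counts versus GST-SBP nonspecific binding control pulldown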
# Details: RBNS binding buffer: 25 mM Tris pH 7.5, 150 mM KCl, 3 mM MgCl2, 0.1% Tween, 0.5 mg/mL BSA, 1 mM DTT; 27 nM protein, 750 pM RNA pool; temperature not stated; high values mean tight binding
row,Sequence,binding signal (log2 fold change)
1,GGUCACGUCUCAAUCAACUCAUUCUCCAGGGAAAUCCCUGGCAAUCUCAACAGCUCGCAGUCAAG,0.145
2,GGUCACGUCUCAAUCAACUCUUUUUCCAGGGAAAUCCCUGGCAUACUCAACAGCUCGCAGUCAAG,-0.12
3,GGUCACGUCUCAAUCAACUCAAUAGAGGGGGGGAAAACCCCUUUGCCCUCGGAAUCAACAGCUCGCAGUCAAG,-0.0932
4,GGUCACGUCUCAAUCAACUCUUCCCCCAGGGAAAUCCCUGGCUUACUCAACAGCUCGCAGUCAAG,0.182
5,GGUCACGUCUCAAUCAACUCUAUCCCCAGGGAAACCCCUGGCAAACUCAACAGCUCGCAGUCAAG,0.086
6,GGUCACGUCUCAAUCAACUCCCAAGAGGGGGGGAAAACCCCUUUACCCUCCACAUCAACAGCUCGCAGUCAAG,-0.0596
7,GGUCACGUCUCAAUCAACUCUAUCCCAGGAGUUUUCUCCUGUAUAUUCAACAGCUCGCAGUCAAG,0.124
8,GGUCACGUCUCAAUCAACUCAUCCCCCAGGGAAAUCCCUGGCUUAUUCAACAGCUCGCAGUCAAG,-0.0823
9,GGUCACGUCUCAAUCAACUCAAGUCCAGGAGUUUACUCCUGUUUUCUCAACAGCUCGCAGUCAAG,0.0764
10,GGUCACGUCUCAAUCAACUCCCUAGAGGGGGGGAAAACCCCUUUACCCUCCUAUUCAACAGCUCGCAGUCAAG,0.0662
11,GGUCACGUCUCAAUCAACUCAUCCUCCAGGGAAACCCCUGGCAAAUUCAACAGCUCGCAGUCAAG,0.14
12,GGUCACGUCUCAAUCAACUCUUUCCCCAGGGAAAUCCCUGGCAUUUUCAACAGCUCGCAGUCAAG,0.115
13,GGUCACGUCUCAAUCAACUCUAUUUCAGGAGUUUUCUCCUGCUUACUCAACAGCUCGCAGUCAAG,0.0169
14,GGUCACGUCUCAAUCAACUCAUCCCCAGGAGUUUACUCCUGUAAAUUCAACAGCUCGCAGUCAAG,-0.0298
15,GGUCACGUCUCAAUCAACUCUAUUUCCAGGGAAAUCCCUGGUUUUUUCAACAGCUCGCAGUCAAG,-0.106
16,GGUCACGUCUCAAUCAACUCACAAGAGGGGGGGAAAACCCCUUUACCCUCCAACUCAACAGCUCGCAGUCAAG,-0.107
17,GGUCACGUCUCAAUCAACUCUUAAGAGGGGGGGAAAACCCCUUUACCCUCAACAUCAACAGCUCGCAGUCAAG,-0.132
18,GGUCACGUCUCAAUCAACUCUAAAGAGGGGGGGAAAACCCCUUUACCCUCAAUAUCAACAGCUCGCAGUCAAG,0.202
19,GGUCACGUCUCAAUCAACUCAUCUUCCAGGGAAAUCCCUGGUUAUUUCAACAGCUCGCAGUCAAG,-0.117
20,GGUCACGUCUCAAUCAACUCUAUCCCCAGGGAAAACCCUGGCUAAUUCAACAGCUCGCAGUCAAG,-0.126
21,GGUCACGUCUCAAUCAACUCAUUUUCCAGGGAAACCCCUGGUUUACUCAACAGCUCGCAGUCAAG,-0.00999
22,GGUCACGUCUCAAUCAACUCACUAGAGGGGGGGAAAACCCCUUUACCCUCAACUUCAACAGCUCGCAGUCAAG,-0.00597
23,GGUCACGUCUCAAUCAACUCUAAAGAGGGGGGGAAAACCCCUUUACCCUCGCCAUCAACAGCUCGCAGUCAAG,-0.0672
24,GGUCACGUCUCAAUCAACUCUUUUUCCAGGGAAAGCCCUGGUUUUCUCAACAGCUCGCAGUCAAG,-0.145
25,GGUCACGUCUCAAUCAACUCAUUCCCCAGGGAAAUCCCUGGCUUUCUCAACAGCUCGCAGUCAAG,0.142

row,Sequence,binding signal (log2 fold change)
1,GGUCACGUCUCAAUCAACUCAUCUCCAGGAGUUUUCUCCUGUAAUCUCAACAGCUCGCAGUCAAG,0.196
2,GGUCACGUCUCAAUCAACUCAUCGGAGGGGGGGAAAACCCCUUUACCCUCAUUCUCAACAGCUCGCAGUCAAG,-0.201
3,GGUCACGUCUCAAUCAACUCAACUCCAGGAGUUUCCUCCUGUAAUGUCAACAGCUCGCAGUCAAG,0.032
4,GGUCACGUCUCAAUCAACUCUCUAGAGGGGGGGAAAACCCCUUUACCCUCACUAUCAACAGCUCGCAGUCAAG,-0.131
5,GGUCACGUCUCAAUCAACUCUUUUUCAGGAGUUUACUCCUGUAUUCUCAACAGCUCGCAGUCAAG,0.0101
6,GGUCACGUCUCAAUCAACUCUACUUCCAGGGAAAACCCUGGUUAUUUCAACAGCUCGCAGUCAAG,-0.0952
7,GGUCACGUCUCAAUCAACUCUCAAGAGGGGGGGAAAACCCCUUUGCCCUCAUAAUCAACAGCUCGCAGUCAAG,0.148
8,GGUCACGUCUCAAUCAACUCAUCCUCAGGAGUUUGCUCCUGCUAUUUCAACAGCUCGCAGUCAAG,0.0485
9,GGUCACGUCUCAAUCAACUCAUUCCCAGGAGUUUUCUCCUGUAUUUUCAACAGCUCGCAGUCAAG,0.0436
10,GGUCACGUCUCAAUCAACUCUAUUCCCAGGGAAAGCCCUGGCAAACUCAACAGCUCGCAGUCAAG,0.0865
11,GGUCACGUCUCAAUCAACUCUAAAGAGGGGGGGAAAACCCCUUUGCCCUCGUAUUCAACAGCUCGCAGUCAAG,-0.0239
12,GGUCACGUCUCAAUCAACUCCAAAGAGGGGGGGAAAACCCCUUUGCCCUCACAUUCAACAGCUCGCAGUCAAG,-0.236
13,GGUCACGUCUCAAUCAACUCUUCCUCCAGGGAAAGCCCUGGUAAAUUCAACAGCUCGCAGUCAAG,-0.0366
14,GGUCACGUCUCAAUCAACUCAUUCCCAGGAGUUUUCUCCUGCAAAGUCAACAGCUCGCAGUCAAG,0.264
15,GGUCACGUCUCAAUCAACUCAUUCUCAGGAGUUUUCUCCUGCAUACUCAACAGCUCGCAGUCAAG,0.26
16,GGUCACGUCUCAAUCAACUCAAUUCCCAGGGAAAUCCCUGGCAAAUUCAACAGCUCGCAGUCAAG,0.066
17,GGUCACGUCUCAAUCAACUCAAGUCCAGGAGUUUUCUCCUGUUUUUUCAACAGCUCGCAGUCAAG,0.0629
18,GGUCACGUCUCAAUCAACUCUAUUCCCAGGGAAAACCCUGGUAUUCUCAACAGCUCGCAGUCAAG,-0.00175
19,GGUCACGUCUCAAUCAACUCUAUAGAGGGGGGGAAAACCCCUUUACCCUCAUUAUCAACAGCUCGCAGUCAAG,0.142
20,GGUCACGUCUCAAUCAACUCUUCGUCAGGAGUUUACUCCUGUUAAUUCAACAGCUCGCAGUCAAG,-0.073
21,GGUCACGUCUCAAUCAACUCAAUCCCCAGGGAAACCCCUGGCUUUCUCAACAGCUCGCAGUCAAG,-0.216
22,GGUCACGUCUCAAUCAACUCUUUAGAGGGGGGGAAAACCCCUUUACCCUCGUUUUCAACAGCUCGCAGUCAAG,-0.0266
23,GGUCACGUCUCAAUCAACUCUAUGUCCAGGGAAAGCCCUGGUUUUCUCAACAGCUCGCAGUCAAG,-0.0931
24,GGUCACGUCUCAAUCAACUCUUUCUCCAGGGAAAACCCUGGUAAUGUCAACAGCUCGCAGUCAAG,0.0136
25,GGUCACGUCUCAAUCAACUCAUCUCCCAGGGAAAACCCUGGCAUAUUCAACAGCUCGCAGUCAAG,0.0576

row,Sequence,binding signal (log2 fold change)
1,GGUCACGUCUCAAUCAACUCUAUCUCCAGGGAAAACCCUGGUUAUCUCAACAGCUCGCAGUCAAG,0.238
2,GGUCACGUCUCAAUCAACUCAAUCUCAGGAGUUUGCUCCUGUAUUCUCAACAGCUCGCAGUCAAG,0.276
3,GGUCACGUCUCAAUCAACUCAACUUCCAGGGAAAGCCCUGGCUUUCUCAACAGCUCGCAGUCAAG,-0.0445
4,GGUCACGUCUCAAUCAACUCUAUUUCAGGAGUUUACUCCUGUAUUUUCAACAGCUCGCAGUCAAG,-0.0868
5,GGUCACGUCUCAAUCAACUCAUCUUCAGGAGUUUUCUCCUGUUAACUCAACAGCUCGCAGUCAAG,-0.047
6,GGUCACGUCUCAAUCAACUCAUCUCCAGGAGUUUUCUCCUGUAAUUUCAACAGCUCGCAGUCAAG,0.192
7,GGUCACGUCUCAAUCAACUCCACAGAGGGGGGGAAAACCCCUUUACCCUCACAUUCAACAGCUCGCAGUCAAG,-0.0597
8,GGUCACGUCUCAAUCAACUCAACGGAGGGGGGGAAAACCCCUUUACCCUCAGAAUCAACAGCUCGCAGUCAAG,0.197
9,GGUCACGUCUCAAUCAACUCCUAAGAGGGGGGGAAAACCCCUUUGCCCUCAAUCUCAACAGCUCGCAGUCAAG,-0.411
10,GGUCACGUCUCAAUCAACUCUAUGUCAGGAGUUUUCUCCUGUAAAUUCAACAGCUCGCAGUCAAG,-0.175
11,GGUCACGUCUCAAUCAACUCUAUUCCCAGGGAAACCCCUGGCUUUUUCAACAGCUCGCAGUCAAG,0.0703
12,GGUCACGUCUCAAUCAACUCAUGUCCAGGAGUUUUCUCCUGUUUUUUCAACAGCUCGCAGUCAAG,0.127
13,GGUCACGUCUCAAUCAACUCUUCCUCCAGGGAAAGCCCUGGCAAUGUCAACAGCUCGCAGUCAAG,0.09
14,GGUCACGUCUCAAUCAACUCAACUUCAGGAGUUUGCUCCUGUUAUUUCAACAGCUCGCAGUCAAG,-0.0913
15,GGUCACGUCUCAAUCAACUCAUCGUCAGGAGUUUGCUCCUGCUUUCUCAACAGCUCGCAGUCAAG,0.113
16,GGUCACGUCUCAAUCAACUCAACUUCAGGAGUUUUCUCCUGUAAUUUCAACAGCUCGCAGUCAAG,0.0364
17,GGUCACGUCUCAAUCAACUCAUCCCCAGGAGUUUUCUCCUGUAAAGUCAACAGCUCGCAGUCAAG,-0.0193
18,GGUCACGUCUCAAUCAACUCAUCCUCAGGAGUUUACUCCUGCAAUCUCAACAGCUCGCAGUCAAG,0.0951
19,GGUCACGUCUCAAUCAACUCAUUCCCCAGGGAAAACCCUGGCUUUUUCAACAGCUCGCAGUCAAG,0.0267
20,GGUCACGUCUCAAUCAACUCUACUCCCAGGGAAAACCCUGGCUAUUUCAACAGCUCGCAGUCAAG,-0.137
21,GGUCACGUCUCAAUCAACUCAUCGGCCAGGGAAACCCCUGGGAAUCUCAACAGCUCGCAGUCAAG,-0.174
22,GGUCACGUCUCAAUCAACUCAUCUUCCAGGGAAACCCCUGGUAAUCUCAACAGCUCGCAGUCAAG,0.198
23,GGUCACGUCUCAAUCAACUCUAUUCCCAGGGAAAGCCCUGGCUUAUUCAACAGCUCGCAGUCAAG,0.178
24,GGUCACGUCUCAAUCAACUCUUCGCCAGGAGUUUUCUCCUGCUAUUUCAACAGCUCGCAGUCAAG,0.0485
